Consider 102 sequences from a collection of fitness landscapes (doi:10.1038/s41467-024-54723-y).

Whole data set: some 18,000 sequences, median “TetR repression strength (sort-seq, GFP reporter)” near 0.23, cut for the highest 2% near 0.68. This is one part of the list.

This assay addresses TetR (class B, Tn10) (UniProt P04483). The experiment in a line: TetR repression strength (sort-seq, GFP reporter) (relative to tetO2 = 1); higher = stronger repression. The following applies: E. coli. In short, it runs like this: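 E. coli SIG10-MAX carried a low-copy plasmid library with eight randomized operator positions between a constitutive promoter and sfGFP, with TetR constitutively expressed. Cells grew 5 h at 37 °C in LB with 50 µg/mL chloramphenicol, then 10^6 cells were FACS-sorted into 13 fluorescence bins, each Illumina-sequenced. Repression strength is the top bin index plus one minus the read-weighted mean bin, divided by the wild-type operator value. Three independent transformations; variants with ≥30 reads in all replicates and CV ≤0.5 were averaged.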
Chain of UniProt P04483 (P04483 whole entry): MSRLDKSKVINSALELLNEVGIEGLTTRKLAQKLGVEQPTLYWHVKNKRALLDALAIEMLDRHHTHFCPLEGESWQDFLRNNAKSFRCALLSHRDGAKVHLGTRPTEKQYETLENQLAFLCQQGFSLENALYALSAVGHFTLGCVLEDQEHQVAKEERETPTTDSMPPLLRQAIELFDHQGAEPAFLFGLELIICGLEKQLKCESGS
TCCCAGGGAGTACGGGAGA returned a TetR repression strength of 0.167.

Sequence TCCCTCTCAGTTCGTGAGA yielded a TetR repression strength of 0.181.

TCCCGTCGAGTATCGGAGA came in with a TetR repression strength of 0.14.

For the sequence TCCCAAGAAGTGAGGGAGA, the TetR repression strength came out at 0.0518.

As for TCCCTATGAGTACGAGAGA, the TetR repression strength stood at 0.291.

With TCCCTGAAAGTACGGGAGA, the TetR repression strength came out at 0.236.

Consider TCCCGCGAAGTGGCCGAGA, for which the TetR repression strength came out at 0.0629.

On to TCCCCCCAAGTGCAAGAGA, for which the TetR repression strength amounted to 0.607.

The sequence TCCCAGGTAGTGAGGGAGA had a TetR repression strength of 0.233.

Regarding TCCCCAATAGTACGGGAGA, the TetR repression strength came out at 0.157.

The sequence TCCCCGTGAGTGGGGGAGA returned a TetR repression strength of 0.263.

Take TCCCGATCAGTTGTTGAGA: the TetR repression strength worked out at 0.398.

The sequence TCCCGTGCAGTAAACGAGA showed a TetR repression strength of 0.326.

Take TCCCCTGGAGTAGTCGAGA: the TetR repression strength came out at 0.235.

With TCCCAAGGAGTTGGAGAGA, the TetR repression strength was 0.103.

Regarding TCCCGTACAGTACAGGAGA, the TetR repression strength was determined as 0.181.

Sequence TCCCATCCAGTATGAGAGA registered a TetR repression strength of 0.077.

In the case of TCCCCAGGAGTCCGTGAGA, the TetR repression strength was 0.301.

In the case of TCCCGTTGAGTTTCTGAGA, the TetR repression strength stood at 0.744.

In turn, TCCCAGGGAGTCTATGAGA showed a TetR repression strength of 0.126.

In the case of TCCCGTCTAGTAGCAGAGA, the TetR repression strength was 0.634.

Take TCCCAGGTAGTTAGAGAGA: the TetR repression strength amounted to 0.198.

TCCCTGCAAGTGTTGGAGA yielded a TetR repression strength of 0.165.

Sequence TCCCTACCAGTAACGGAGA registered a TetR repression strength of 0.0744.

On to TCCCTGGGAGTCCGCGAGA, for which the TetR repression strength is 0.24.

Sequence TCCCAGATAGTAGATGAGA returned a TetR repression strength of 0.137.

As to TCCCCTAAAGTCCATGAGA, the TetR repression strength stood at 0.258.

TCCCGGTCAGTTCTAGAGA: the TetR repression strength was 0.362.

TCCCATGGAGTCCGGGAGA: the TetR repression strength was found to be 0.192.

The sequence TCCCTTAGAGTTGTAGAGA registered a TetR repression strength of 0.188.

As to TCCCGGGGAGTATTCGAGA, the TetR repression strength came to 0.235.

TCCCTATTAGTGACTGAGA had a TetR repression strength of 0.345.

With TCCCGTTCAGTGGGGGAGA, the TetR repression strength was 0.277.

In the case of TCCCCGAGAGTGCCAGAGA, the TetR repression strength is 0.411.

Take TCCCTATAAGTTATAGAGA: the TetR repression strength stood at 0.651.

Sequence TCCCATTAAGTAGGAGAGA registered a TetR repression strength of 0.2.

Consider TCCCGGGCAGTGAGGGAGA, for which the TetR repression strength was determined as 0.659.

As for TCCCTGGAAGTTTGGGAGA, the TetR repression strength amounted to 0.178.

TCCCGTTCAGTGAGAGAGA yielded a TetR repression strength of 0.516.

TCCCTTGTAGTTCGCGAGA: the TetR repression strength stood at 0.153.

In turn, TCCCGTGAAGTCGAGGAGA yielded a TetR repression strength of 0.0928.

As for TCCCCGGGAGTGTATGAGA, the TetR repression strength amounted to 0.232.

Sequence TCCCATCGAGTACGGGAGA registered a TetR repression strength of 0.185.

With TCCCCACAAGTATCAGAGA, the TetR repression strength was found to be 0.752.

As to TCCCGTAAAGTGATCGAGA, the TetR repression strength came out at 0.127.

In the case of TCCCTCCGAGTTCATGAGA, the TetR repression strength came to 0.272.

Sequence TCCCGAACAGTTTTAGAGA showed a TetR repression strength of 0.248.

With TCCCGCCCAGTTCTAGAGA, the TetR repression strength turned out to be 0.43.

The sequence TCCCATGTAGTATGGGAGA registered a TetR repression strength of 0.283.

Consider TCCCGGCGAGTATTGGAGA, for which the TetR repression strength amounted to 0.266.

As for TCCCCTGGAGTCTCTGAGA, the TetR repression strength is 0.19.

In the case of TCCCCCACAGTGAGGGAGA, the TetR repression strength is 0.311.

In turn, TCCCGGCGAGTTACCGAGA showed a TetR repression strength of 0.287.

On to TCCCTAGAAGTGCGTGAGA, for which the TetR repression strength stood at 0.176.

In the case of TCCCTGGGAGTGTAGGAGA, the TetR repression strength worked out at 0.233.

In turn, TCCCGCCCAGTGGGCGAGA had a TetR repression strength of 0.175.

TCCCCCCCAGTGCAGGAGA came in with a TetR repression strength of 0.292.

On to TCCCATGTAGTGAGAGAGA, for which the TetR repression strength amounted to 0.17.

In turn, TCCCGACGAGTCGCGGAGA displayed a TetR repression strength of 0.179.

TCCCTCTCAGTACACGAGA returned a TetR repression strength of 0.458.

As to TCCCTGCCAGTGATAGAGA, the TetR repression strength came to 0.646.

Take TCCCGATTAGTAGGGGAGA: the TetR repression strength stood at 0.844.

As for TCCCTGGCAGTGGGGGAGA, the TetR repression strength is 0.247.

Take TCCCTCGGAGTGATTGAGA: the TetR repression strength came to 0.359.

TCCCAGTGAGTCAGTGAGA showed a TetR repression strength of 0.157.

Regarding TCCCGATGAGTCCGCGAGA, the TetR repression strength was determined as 0.0471.

Regarding TCCCAATTAGTTGTTGAGA, the TetR repression strength is 0.119.

On to TCCCTACGAGTATTAGAGA, for which the TetR repression strength stood at 0.00415.

Regarding TCCCTAGGAGTCAACGAGA, the TetR repression strength was found to be 0.3.

TCCCTGAGAGTGGTCGAGA yielded a TetR repression strength of 0.299.

Regarding TCCCTATTAGTATGAGAGA, the TetR repression strength worked out at 0.278.

In the case of TCCCGCCCAGTTGAGGAGA, the TetR repression strength came out at 0.175.

Sequence TCCCGGGAAGTTGGAGAGA showed a TetR repression strength of 0.199.

TCCCATAAAGTGGGAGAGA registered a TetR repression strength of 0.

The sequence TCCCCGCCAGTGGGTGAGA showed a TetR repression strength of 0.198.

The sequence TCCCAAAAAGTCCATGAGA returned a TetR repression strength of 0.188.

For TCCCCTCCAGTGCGGGAGA, the TetR repression strength amounted to 0.148.

TCCCGGGCAGTGTGCGAGA gave a TetR repression strength of 0.301.

In the case of TCCCTTCGAGTATATGAGA, the TetR repression strength was found to be 0.444.

TCCCCGTCAGTTCGAGAGA displayed a TetR repression strength of 0.213.

The sequence TCCCGTCGAGTCGACGAGA came in with a TetR repression strength of 0.303.

On to TCCCCGCAAGTGCCTGAGA, for which the TetR repression strength amounted to 0.285.

Consider TCCCACGAAGTGCGAGAGA, for which the TetR repression strength stood at 0.0666.

Consider TCCCAACCAGTTCAGGAGA, for which the TetR repression strength was found to be 0.17.

As to TCCCAGGGAGTTTAAGAGA, the TetR repression strength was 0.231.

With TCCCCTACAGTGGTGGAGA, the TetR repression strength worked out at 0.319.

With TCCCCGAAAGTGAGGGAGA, the TetR repression strength is 0.0354.

TCCCACGTAGTTGGGGAGA returned a TetR repression strength of 0.262.

TCCCTGGCAGTTAGTGAGA displayed a TetR repression strength of 0.218.

The sequence TCCCGCTCAGTGAACGAGA had a TetR repression strength of 0.432.

Sequence TCCCGATGAGTTAGAGAGA gave a TetR repression strength of 0.749.

For the sequence TCCCGCATAGTTGGCGAGA, the TetR repression strength amounted to 0.272.

Consider TCCCGGGGAGTTCTAGAGA, for which the TetR repression strength was 0.432.

Sequence TCCCGGCTAGTGTCAGAGA came in with a TetR repression strength of 0.196.

The sequence TCCCTCATAGTAGGGGAGA showed a TetR repression strength of 0.146.

TCCCCTGCAGTCCTAGAGA gave a TetR repression strength of 0.23.

Sequence TCCCGGGCAGTTGGAGAGA had a TetR repression strength of 0.57.

On to TCCCCTAAAGTAGTCGAGA, for which the TetR repression strength was determined as 0.144.

Take TCCCAAAAAGTTCCGGAGA: the TetR repression strength amounted to 0.0327.

TCCCAAACAGTGCAAGAGA yielded a TetR repression strength of 0.415.

TCCCAGGGAGTACAGGAGA had a TetR repression strength of 0.24.

As for TCCCTCGAAGTGCTTGAGA, the TetR repression strength came to 0.406.
